The other results are listed elsewhere or left out.
Key:
Experiment in all cases: glycan array binding signal (z-score within array); higher = stronger binding
Conditions in all cases: glycan notation: IUPAC condensed, linker removed
Fuc(a1-2)Gal = biological target: Fuc(a1-2)Gal
Procedure, shortened: (§1)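 Columns mapping to the same glycan were averaged after glycan names were converted to IUPAC-condensed notation. The data come from 3228 arrays in the Consortium for Functional Glycomics database, limited to those with an available protein sequence. Binding is reported as a within-array Z-score averaged across arrays of one protein sequence and across linkers.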

Fuc(a1-2)Gal(b1-3)GalNAc = biological target: Fuc(a1-2)Gal(b1-3)GalNAc
Procedure, shortened: as §1

[1] = biological target: Fuc(a1-2)Gal(b1-3)GalNAc(a1-3)[Fuc(a1-2)]Gal(b1-4)Glc
Procedure, shortened: as §1

[2] = biological target: Fuc(a1-2)Gal(b1-3)GalNAc(a1-3)[Fuc(a1-2)]Gal(b1-4)GlcNAc
Procedure, shortened: as §1

[3] = biological target: Fuc(a1-2)Gal(b1-3)GalNAc(b1-3)Gal
Procedure, shortened: as §1

[4] = biological target: Fuc(a1-2)Gal(b1-3)GalNAc(b1-3)Gal(a1-4)Gal(b1-4)Glc
Procedure, shortened: as §1

[5] = biological target: Fuc(a1-2)Gal(b1-3)GalNAc(b1-4)[Neu5Ac(a2-3)]Gal(b1-4)Glc
Procedure, shortened: as §1

Fuc(a1-2)Gal(b1-3)GlcNAc = biological target: Fuc(a1-2)Gal(b1-3)GlcNAc
Procedure, shortened: as §1

[6] = biological target: Fuc(a1-2)Gal(b1-3)GlcNAc(b1-2)Man(a1-3)[Fuc(a1-2)Gal(b1-3)GlcNAc(b1-2)Man(a1-6)]Man(b1-4)GlcNAc(b1-4)GlcNAc
Procedure, shortened: as §1

[7] = biological target: Fuc(a1-2)Gal(b1-3)GlcNAc(b1-2)Man(a1-3)[Fuc(a1-2)Gal(b1-3)GlcNAc(b1-2)Man(a1-6)]Man(b1-4)GlcNAc(b1-4)[Fuc(a1-6)]GlcNAc
Procedure, shortened: as §1

[8] = biological target: Fuc(a1-2)Gal(b1-3)GlcNAc(b1-3)Gal(b1-4)Glc
Procedure, shortened: as §1

[9] = biological target: Fuc(a1-2)Gal(b1-3)GlcNAc(b1-3)GalNAc
Procedure, shortened: as §1

[10] = biological target: Fuc(a1-2)Gal(b1-3)GlcNAc(b1-3)[Fuc(a1-2)Gal(b1-3)GlcNAc(b1-6)]GalNAc
Procedure, shortened: as §1

[11] = biological target: Fuc(a1-2)Gal(b1-3)GlcNAc(b1-3)[Gal(b1-4)GlcNAc(b1-6)]Gal(b1-4)Glc
Procedure, shortened: as §1

[12] = biological target: Fuc(a1-2)Gal(b1-3)GlcNAc(b1-3)[Neu5Ac(a2-6)Gal(b1-4)GlcNAc(b1-6)]Gal(b1-4)Glc
Procedure, shortened: as §1

[13] = biological target: Fuc(a1-2)Gal(b1-3)GlcNAc6S
Procedure, shortened: as §1

[14] = biological target: Fuc(a1-2)Gal(b1-3)[Fuc(a1-4)]GlcNAc
Procedure, shortened: as §1

[15] = biological target: Fuc(a1-2)Gal(b1-3)[Fuc(a1-4)]GlcNAc(b1-2)Man(a1-3)[Fuc(a1-2)Gal(b1-3)[Fuc(a1-4)]GlcNAc(b1-2)Man(a1-3)]Man(b1-4)GlcNAc(b1-4)GlcNAc
Procedure, shortened: as §1

[16] = biological target: Fuc(a1-2)Gal(b1-3)[Fuc(a1-4)]GlcNAc(b1-2)Man(a1-3)[Fuc(a1-2)Gal(b1-3)[Fuc(a1-4)]GlcNAc(b1-2)Man(a1-6)]Man(b1-4)GlcNAc(b1-4)[Fuc(a1-6)]GlcNAc(b1-4)[Fuc(a1-6)]GlcNAc
Procedure, shortened: as §1

[17] = biological target: Fuc(a1-2)Gal(b1-3)[Fuc(a1-4)]GlcNAc(b1-3)[Fuc(a1-3)[Gal(b1-4)]GlcNAc(b1-6)]Gal(b1-4)Glc
Procedure, shortened: as §1

[18] = biological target: Fuc(a1-2)Gal(b1-3)[Fuc(a1-4)]GlcNAc(b1-3)[Gal(b1-4)GlcNAc(b1-6)]Gal(b1-4)Glc
Procedure, shortened: as §1

Fuc(a1-2)Gal(b1-4)Glc = biological target: Fuc(a1-2)Gal(b1-4)Glc
Procedure, shortened: as §1

Fuc(a1-2)Gal(b1-4)Glc6S = biological target: Fuc(a1-2)Gal(b1-4)Glc6S
Procedure, shortened: as §1

Fuc(a1-2)Gal(b1-4)GlcNAc = biological target: Fuc(a1-2)Gal(b1-4)GlcNAc
Procedure, shortened: as §1

[19] = biological target: Fuc(a1-2)Gal(b1-4)GlcNAc(b1-2)Man
Procedure, shortened: as §1

[20] = biological target: Fuc(a1-2)Gal(b1-4)GlcNAc(b1-2)Man(a1-3)[Fuc(a1-2)Gal(b1-4)GlcNAc(b1-2)Man(a1-6)]Man(b1-4)GlcNAc(b1-4)GlcNAc
Procedure, shortened: as §1

[21] = biological target: Fuc(a1-2)Gal(b1-4)GlcNAc(b1-2)Man(a1-3)[Fuc(a1-2)Gal(b1-4)GlcNAc(b1-2)Man(a1-6)]Man(b1-4)GlcNAc(b1-4)[Fuc(a1-6)]GlcNAc
Procedure, shortened: as §1

[22] = biological target: Fuc(a1-2)Gal(b1-4)GlcNAc(b1-2)[Fuc(a1-2)Gal(b1-4)GlcNAc(b1-4)]Man(a1-3)[Fuc(a1-2)Gal(b1-4)GlcNAc(b1-2)Man(a1-6)]Man(b1-4)GlcNAc(b1-4)GlcNAc
Procedure, shortened: as §1

[23] = biological target: Fuc(a1-2)Gal(b1-4)GlcNAc(b1-3)Gal(b1-4)GlcNAc
Procedure, shortened: as §1

[24] = biological target: Fuc(a1-2)Gal(b1-4)GlcNAc(b1-3)Gal(b1-4)GlcNAc(b1-2)Man(a1-3)[Fuc(a1-2)Gal(b1-4)GlcNAc(b1-3)Gal(b1-4)GlcNAc(b1-2)Man(a1-6)]Man(b1-4)GlcNAc(b1-4)GlcNAc
Procedure, shortened: as §1

B1: PX9896A-bth-573-26-573 (Bacteroides thetaiotaomicron) (protein)
chain: ETNNLKTKEDMYKYFGTSKSMLTHVYSYMPQGYQLFATSGGIFTEDRYSMRDCASDDGEFGAYADNIQNTNNGNWSPIKTYDDSWTLYRGIRAANSFIAEIAQVDFTRYEHDGQYTNWMKQLKYFPYEARVLRAHYFFELARRYGDIAMPLEVLTEEEANTIGKTPFSEVISFIVSECDDAANNLPDSYVNEPGAEIGRVTKGFAMAVKSKALLYAASKLHNPSMDTELWKKSAKAAIDIINTGLYSLDPQESANNLDSKEVVLMRINGDDSDFEMFNLPLRMTAGTRTSSLIPYSNYPSQNLVDAFETVNGYKVTLENTGWVCEDPAFDPQSPYENRDKRFYRAILANGMSFKDYTIETFKGGADDGIVSQGGSPTGYFLRKYIQEATSFEPGKEAVSKHHWVIYRYAETLLTYAESMVNAFNDVNYTDETYKYSALWAINEVRKNADMPLIPSMGKDEFMERLYNEWRVEFAFEDHRFWDVRRWKIADTTQRELYGVKIEKQADGTFNFYKNLYETRNWRDCMYLYPIPQSELYKNTNLNPQNTGW
glycan array binding signal (z-score) (Fuc(a1-2)Gal): -0.334 | glycan array binding signal (z-score) (Fuc(a1-2)Gal(b1-3)GalNAc): -0.178 | glycan array binding signal (z-score) [1]: 0.073 | glycan array binding signal (z-score) [2]: 0.07 | glycan array binding signal (z-score) [3]: -0.605 | glycan array binding signal (z-score) [4]: 0.511 | glycan array binding signal (z-score) [5]: -0.491 | glycan array binding signal (z-score) (Fuc(a1-2)Gal(b1-3)GlcNAc): 0.448 | glycan array binding signal (z-score) [6]: -0.041 | glycan array binding signal (z-score) [7]: 0.89 | glycan array binding signal (z-score) [8]: -0.05 | glycan array binding signal (z-score) [9]: -0.507 | glycan array binding signal (z-score) [10]: 0.638 | glycan array binding signal (z-score) [11]: 0.403 | glycan array binding signal (z-score) [12]: -0.324 | glycan array binding signal (z-score) [13]: -0.258 | glycan array binding signal (z-score) [14]: -0.457 | glycan array binding signal (z-score) [15]: 0.172 | glycan array binding signal (z-score) [16]: 0.845 | glycan array binding signal (z-score) [17]: -0.063 | glycan array binding signal (z-score) [18]: -0.704 | glycan array binding signal (z-score) (Fuc(a1-2)Gal(b1-4)Glc): -0.411 | glycan array binding signal (z-score) (Fuc(a1-2)Gal(b1-4)Glc6S): -0.433 | glycan array binding signal (z-score) (Fuc(a1-2)Gal(b1-4)GlcNAc): -0.263 | glycan array binding signal (z-score) [19]: -0.198 | glycan array binding signal (z-score) [20]: 0.155 | glycan array binding signal (z-score) [21]: 1.31 | glycan array binding signal (z-score) [22]: 0.665 | glycan array binding signal (z-score) [23]: -0.815 | glycan array binding signal (z-score) [24]: -0.158

— the supplement of paper PMC8728848
